Measurements from PMC6919601, “Identification of Plasmodium dipeptidyl aminopeptidase allosteric inhibitors by high throughput screening” (PLoS ONE, 2019).
Screen size: about 110,000 compounds; about 230 (0.21%) showed an effect of 50% or more. The list shows a part of the results.

The compounds below were run against DPAP1 (Plasmodium falciparum, UniProt Q8IIJ9) (assay: primary screen, percent inhibition; read by cleavage of a fluorogenic dipeptide substrate; higher = more effect of the substance).
Set-up: species or system P. falciparum D10 trophozoite lysates; single well
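Also: 30 min substrate incubation versus DMSO and 10 µM JCP410 controls.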

Chain of DPAP1 (Q8IIJ9 whole entry, looked up): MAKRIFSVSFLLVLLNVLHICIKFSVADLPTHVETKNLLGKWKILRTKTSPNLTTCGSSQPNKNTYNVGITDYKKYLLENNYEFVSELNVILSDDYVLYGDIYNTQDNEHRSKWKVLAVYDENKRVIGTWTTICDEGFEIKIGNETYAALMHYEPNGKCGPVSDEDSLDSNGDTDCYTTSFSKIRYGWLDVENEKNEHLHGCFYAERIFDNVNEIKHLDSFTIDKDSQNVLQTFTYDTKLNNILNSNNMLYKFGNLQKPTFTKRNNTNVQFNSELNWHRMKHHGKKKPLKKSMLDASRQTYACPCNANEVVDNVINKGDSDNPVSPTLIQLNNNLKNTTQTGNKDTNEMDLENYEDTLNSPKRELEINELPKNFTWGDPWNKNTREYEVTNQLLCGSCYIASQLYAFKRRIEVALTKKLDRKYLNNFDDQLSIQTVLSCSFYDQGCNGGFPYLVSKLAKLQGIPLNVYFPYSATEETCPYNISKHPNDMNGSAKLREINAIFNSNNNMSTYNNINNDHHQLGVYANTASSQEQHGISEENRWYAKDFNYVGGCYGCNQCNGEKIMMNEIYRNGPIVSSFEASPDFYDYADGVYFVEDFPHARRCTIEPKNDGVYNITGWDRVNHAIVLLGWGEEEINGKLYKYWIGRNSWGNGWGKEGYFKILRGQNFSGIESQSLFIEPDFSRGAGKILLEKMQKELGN

Going from `O=C(COc1ccc(S(=O)(=O)N2CCCC2)cc1)N1CCCCC1` to `C#CCOC(=O)c1ccc(S(=O)(=O)N2CCCCC2)cc1`, the “% Inhibition @ 10 uM” value rises from -8.59% to 3.15%.

First: CCOc1cc(C2CC(=O)NC3=C2C(=O)CC(c2ccc(OC)c(OC)c2)C3)cc(Cl)c1O (stereo not drawn)
Second: COc1ccc(CCNC(=O)CN2CC(c3ccccc3)CC2=O)cc1OC (stereo not drawn)
The “% Inhibition @ 10 uM” value of the first is lower: -3.51% for the first, 0.738% for the second.

First: COc1ccccc1C(=O)Nc1sc(-c2ccccc2)cc1C(=O)O
Second: O=C(O)C(Cc1ccccc1)Nc1ncnc2c1oc1ccccc12 (stereo not drawn)
The “% Inhibition @ 10 uM” value of the first is higher: 6.34% for the first, 4.44% for the second.

First: O=C(NCCC1=CCCCC1)c1ccc(Br)o1
Second: Cc1cc(OCC(=O)NCC2CCCO2)ccc1Cl (stereo not drawn)
The “% Inhibition @ 10 uM” value of the first is higher: -1.73% for the first, -1.98% for the second.

Going from `COc1ccc2c(c1)CCc1c(C(=O)Nc3c(C)nn(Cc4ccc(F)cc4)c3C)noc1-2` to `Cc1ccc(Cn2nc(C)c(NC(=O)COCc3cc(-c4cccs4)on3)c2C)cc1`, the “% Inhibition @ 10 uM” value falls from 0.0221% to -7.94%.

First: c1ccc(CCN2CCN(c3ccccc3)CC2)cc1
Second: Cc1nnc(N2CCC(C(=O)NC(C)CCc3ccccc3)CC2)c2nn(-c3ccccc3)c(C)c12 (stereo not drawn)
The “% Inhibition @ 10 uM” value of the first is lower: -0.603% for the first, 0.0274% for the second.

Compared with `CCOC(=O)c1[nH]c(C)c(C(=O)NC(C)c2ccccc2)c1C` (stereo not drawn), `CCC(C)NC(=O)c1ccccc1NS(=O)(=O)c1ccc(Br)cc1` (stereo not drawn) is higher in “% Inhibition @ 10 uM” value: -3.44% for the first, 0.214% for the second.

Compared with `O=C(CCCn1c(=O)c2cccn2c2cccnc21)NCCCN1CCc2ccccc2C1`, `CC(NC(=O)CCN1C(=O)c2ccccc2Sc2ncccc21)c1ccccc1` (stereo not drawn) is lower in “% Inhibition @ 10 uM” value: 0.677% for the first, 0.436% for the second.

Compared with `O=S(=O)(c1ccc(-c2cc(C(F)(F)F)no2)s1)N(CCN1CCOCC1)Cc1ccco1`, `c1nc(NCCCN2CCOCC2)c2c3c(sc2n1)CCCC3` is higher in “% Inhibition @ 10 uM” value: -5.12% for the first, 4.89% for the second.

Compared with `O=C1CCCC2=C1C(c1cccc(Br)c1)C1=C(CCCC1=O)O2`, `Cc1oc(-c2cccc(Br)c2)nc1CN1CCC(C(=O)NC2CCCCC2C)CC1` (stereo not drawn) is lower in “% Inhibition @ 10 uM” value: 16% for the first, 0.689% for the second.

Going from `CCN(CC)CCNc1ccc2nnc(CCNC(=O)c3ccc(C)cc3)n2n1` to `CCCCN(C)CCCNC(=O)c1ccc(CNS(=O)(=O)c2ccc(Br)cc2)cc1`, the “% Inhibition @ 10 uM” value rises from -5.88% to 0.208%.

First: CCN(CC)c1nc(Cl)nc(N(C)C#N)n1
Second: CCOC(=O)c1c(C)oc2nc(C)nc(N3CCN(C(=O)OCC)CC3)c12
The “% Inhibition @ 10 uM” value of the first is higher: -2.15% for the first, -5.57% for the second.

First: Cc1ccc(C2C(C(=O)c3ccc(F)cc3)=C(O)C(=O)N2CCCN(C)C)cc1 (stereo not drawn)
Second: COc1cc(C2C(C(=O)c3ccc4c(c3)OCCO4)=C(O)C(=O)N2Cc2ccco2)ccc1O (stereo not drawn)
The “% Inhibition @ 10 uM” value of the first is higher: 2.27% for the first, -10.7% for the second.

Going from `COc1ccc(C2CC(c3ccccc3C)n3nnnc3N2)cc1` (stereo not drawn) to `CN1C(c2ccccc2)=CC(c2ccccc2)n2nnnc21` (stereo not drawn), the “% Inhibition @ 10 uM” value falls from -1.62% to -2.36%.

Compared with `COc1cc(C2C(C#N)=C3N=C(N)c4c(sc5c4C4CCN5CC4)N3C3=C2C(=O)CCC3)ccc1O` (stereo not drawn), `COc1ccccc1C1C(C#N)=C(N)Oc2c1sc1ccccc21` (stereo not drawn) is lower in “% Inhibition @ 10 uM” value: 5.13% for the first, -3.9% for the second.

Going from `COc1ccc(CCNC(=O)c2cnn3ccccc23)c(OC)c1OC` to `COc1cccc(S(=O)(=O)Nc2ccc(C(=O)NCCc3ccccc3)cc2)c1`, the “% Inhibition @ 10 uM” value rises from -6.52% to -4.72%.

Compared with `CCOc1ccc(NC(=O)c2c(Cl)c(C)nn2C)cc1`, `C=CCc1cccc2cc(C(=O)Nc3ccc(OC)cc3)c(=O)oc12` is lower in “% Inhibition @ 10 uM” value: 0.121% for the first, -0.771% for the second.

Compared with `COC(=O)c1sc2nc3n(c(=O)c2c1C)N=C(c1ccc(Br)cc1)CS3`, `Cn1c(=O)c2ncn(CC(=O)Nc3cccc(-c4nc5ccccc5s4)c3)c2n(C)c1=O` is higher in “% Inhibition @ 10 uM” value: 4.46% for the first, 9.11% for the second.

First: CC(C)C(=O)Nc1ccc(NC(=O)Cc2ccc(Cl)cc2)cc1
Second: CC(=O)Nc1ccc(S(=O)(=O)NCc2ccccc2Cl)cc1
The “% Inhibition @ 10 uM” value of the first is lower: -0.231% for the first, -0.116% for the second.

First: Fc1ccc(-c2nnc(-c3ccc4c(c3)OCO4)o2)cc1
Second: Cn1c(-c2ccc(Cl)cc2)cnc1NCc1ccc(C(F)(F)F)cc1
The “% Inhibition @ 10 uM” value of the first is higher: 2.41% for the first, -1.11% for the second.

First: COCCNC(=O)O[C@@H](CS(=O)(=O)Cc1ccccc1)C(=O)NCC#N
Second: CC(C)NC(=O)C(=O)NCc1ccccc1Cl
The “% Inhibition @ 10 uM” value of the first is lower: -5.42% for the first, 1.13% for the second.

Compared with `Cc1cccc(OCC(=O)NC2CCCCCC2)c1`, `O=C(NC1CCCCCCC1)c1ccc2c(c1)ncn2C1CCCC1` is higher in “% Inhibition @ 10 uM” value: 2% for the first, 6.74% for the second.

Compared with `CC1=NN(C(=O)c2ccc(COc3ccccc3Br)o2)C(O)(C(F)(F)F)C1` (stereo not drawn), `COc1ccc(-c2cc(C(F)(F)F)nc(S(=O)(=O)CCC(=O)NCc3ccccc3)n2)cc1` is higher in “% Inhibition @ 10 uM” value: -3.71% for the first, 1.72% for the second.

Compared with `COc1ccc(CC2=C(O)C(=O)c3ccccc3C2=O)cc1`, `COc1ccc(Cc2c(Cl)nc(SC)nc2Cl)cc1` is higher in “% Inhibition @ 10 uM” value: -1.25% for the first, 5.3% for the second.

Going from `O=C(O)CSc1nc2c(Br)c(N3CCOCC3)c(F)cc2[nH]1` to `O=C(CN1CCOCC1)N1CCN(C(=O)CN2CCOCC2)CC1`, the “% Inhibition @ 10 uM” value rises from -2.18% to -1.42%.

Compared with `COC(=O)c1cc(S(=O)(=O)NCc2ccc(C)cc2)c[nH]1`, `Cc1cc2cc(CNS(=O)(=O)N(C)C)ccc2n1C` is higher in “% Inhibition @ 10 uM” value: -11.9% for the first, -0.138% for the second.

Compared with `CC1Nc2nc(N)nc(O)c2N(C(=O)c2cccnc2)C1C` (stereo not drawn), `O=C(Cn1ncn2c(cc3ccccc32)c1=O)NC1CC1` is higher in “% Inhibition @ 10 uM” value: 4.03% for the first, 4.84% for the second.

First: OCC/N=C/c1c(O)n(-c2c(Cl)cccc2Cl)c2ccccc12
Second: C=CCc1ccccc1OCC(O)Cn1cnc2ccccc21 (stereo not drawn)
The “% Inhibition @ 10 uM” value of the first is higher: 0.484% for the first, -3.39% for the second.

First: CC(C)CCn1cnc2c1c(=O)n(C)c(=O)n2C
Second: CCN1C(=O)N/C(=C/c2ccc(OC)c(Br)c2)C1=O
The “% Inhibition @ 10 uM” value of the first is lower: -3.13% for the first, 19.8% for the second.

First: Cc1ccc(S(=O)(=O)N2CCC(CN3C(=O)c4cccc5cccc(c45)C3=O)CC2)cc1
Second: COc1ccc(CN2CCN(Cc3cccc(C)c3)CC2)cc1
The “% Inhibition @ 10 uM” value of the first is higher: -3.37% for the first, -6.57% for the second.

First: CCOc1cccc(-c2cc(C(=O)Nc3ccc(C(N)=O)cc3)c3ccccc3n2)c1
Second: COc1cc2c(cc1OC)C(C(=O)NCc1ccc(F)cc1)C(c1cccs1)N(C)C2=O (stereo not drawn)
The “% Inhibition @ 10 uM” value of the first is lower: -18.6% for the first, 8.16% for the second.

With `OCCC1CCCCN1CCc1ccccc1` (stereo not drawn) the “% Inhibition @ 10 uM” value was 1.62%.
